Over roughly 33,000 sequences, “E-score (-0.5 to 0.5)” has its median near -0.021; the highest 2% begin near 0.32. Some of the results follow.
What follows are sequences tested against T1, Zap1 (UniProt P47043) (assay: PBM E-score (8-mer binding enrichment) (E-score (-0.5 to 0.5)); higher = stronger / more preferred TF binding; most listed sequences are background and not binding sites). Conditions: protein concentration: 200 nM; construct: GST-full length.
T1 sequence: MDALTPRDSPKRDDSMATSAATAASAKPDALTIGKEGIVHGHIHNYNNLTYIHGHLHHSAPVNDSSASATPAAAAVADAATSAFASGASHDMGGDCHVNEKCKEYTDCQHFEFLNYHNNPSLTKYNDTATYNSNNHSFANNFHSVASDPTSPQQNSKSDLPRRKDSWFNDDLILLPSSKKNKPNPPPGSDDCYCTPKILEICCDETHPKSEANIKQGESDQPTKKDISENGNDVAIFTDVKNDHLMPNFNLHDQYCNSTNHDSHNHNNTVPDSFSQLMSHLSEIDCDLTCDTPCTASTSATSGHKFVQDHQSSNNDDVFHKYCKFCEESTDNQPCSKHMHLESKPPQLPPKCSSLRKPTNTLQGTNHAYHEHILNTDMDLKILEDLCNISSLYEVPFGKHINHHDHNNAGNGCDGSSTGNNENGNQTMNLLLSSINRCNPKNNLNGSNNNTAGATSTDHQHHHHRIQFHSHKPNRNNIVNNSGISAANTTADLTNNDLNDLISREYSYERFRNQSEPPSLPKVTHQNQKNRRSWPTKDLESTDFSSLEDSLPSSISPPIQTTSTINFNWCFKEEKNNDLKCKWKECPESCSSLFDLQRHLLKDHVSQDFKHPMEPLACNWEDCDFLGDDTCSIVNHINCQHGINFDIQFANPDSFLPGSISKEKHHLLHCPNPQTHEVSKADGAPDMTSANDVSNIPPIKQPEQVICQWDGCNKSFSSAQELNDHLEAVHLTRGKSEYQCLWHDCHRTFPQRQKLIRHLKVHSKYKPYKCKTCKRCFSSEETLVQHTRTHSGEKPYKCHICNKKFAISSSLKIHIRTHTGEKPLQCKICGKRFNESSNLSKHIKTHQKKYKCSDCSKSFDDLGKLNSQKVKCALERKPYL
Method: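 Universal 'all 10-mer' protein binding microarrays (Agilent AMADID 015681) probed with GST-tagged S. cerevisiae TFs (full-length or DBD) made by in vitro transcription/translation (PURExpress), about 100-200 nM. Bound TF was detected with fluorescent anti-GST. Each ungapped 8-mer (which stands for itself and its reverse complement) is scored by the PBM enrichment score (E-score), a modified Wilcoxon-Mann-Whitney statistic from -0.5 to +0.5, computed with the Universal PBM Analysis Suite. Scale: above 0.35 generally sequence-specific binding.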

| Sequence | PBM E-score |
| --- | --- |
| CCCACCAC | 0.173 |
| GATGGTGA | -0.0368 |
| AACCTCCA | 0.0742 |
| GACTGCGA | -0.0511 |
| CTAACGTC | -0.0612 |
| CACGAACG | -0.172 |
| CGCTGGAG | -0.157 |
| ATCTACCA | 0.102 |
| ACCGCCTG | -0.0532 |
| GAGGACTA | -0.121 |
| GAGTGACA | -0.074 |
| ATGCCTAA | -0.208 |
| ACTCGGGC | -0.298 |
| ATTTCCCC | -0.231 |
| GATGCACA | -0.163 |
| GTTGTCGA | 0.0841 |
| ATGATGTA | 0.0657 |
| AGCACATA | 0.0424 |
| ATGCTTTC | -0.0842 |
| GGTATTTA | 0.082 |
| AAAAGAAG | 0.0154 |
| GAACTTGA | 0.0747 |

| Sequence | PBM E-score |
| --- | --- |
| ACGGACCG | -0.0571 |
| AGGTGGTG | 0.136 |
| GATGATCC | -0.0878 |
| CTATAGAA | 0.0447 |
| CCGGAGAG | -0.149 |
| CTAACCGC | 0.223 |
| CTAACTCC | -0.133 |
| TTATCGAA | 0.152 |
| ATCGTAGA | -0.17 |
| AACGAGAA | 0.0322 |
| AACGAAAA | 0.0813 |
| CTTACGTA | -0.134 |
| TAGTCGGA | -0.0573 |
| ACTAACCG | 0.144 |
| ATAAGAAA | 0.105 |
| ACCCGAGT | 0.139 |
| TACCTACA | 0.137 |
| AACTTTCC | -0.0817 |
| ACGGAGAC | 0.0642 |
| GCTAGCGA | -0.0935 |
| ACAAAGCG | 0.127 |
| GATTAACA | 0.139 |

| Sequence | PBM E-score |
| --- | --- |
| ATGCTAGA | -0.172 |
| ACCGAACC | -0.109 |
| GGCGTATA | -0.085 |
| AAGTTATA | 0.184 |
| ACAGCCGT | -0.123 |
| CGTAGGAA | -0.156 |
| ATTAGCAG | -0.17 |
| CCATTGGC | -0.107 |
| AGTTTCGA | -0.031 |
| TCATTAGA | 0.097 |
| AGACCTGG | -0.129 |
| ATTACTAC | -0.0837 |
| TCGCGCCA | 0.044 |
| CGGCTCGA | -0.172 |
| ATGGATGG | -0.128 |
| ATTACCGG | 0.125 |
| TCTAGTAA | 0.109 |
| CATCCTGG | -0.118 |
| GCTCGAGA | -0.159 |
| ACGACGCT | -0.172 |
| ACAATAAA | 0.0666 |
| CCCGTTAA | 0.0396 |

| Sequence | PBM E-score |
| --- | --- |
| ATAGCTAC | -0.082 |
| AACATTGG | -0.21 |
| ACTGTCAC | 0.0771 |
| AGACATCA | -0.0482 |
| AGGTGTTA | -0.0266 |
| CGACGTCC | -0.136 |
| GCTTATGA | 0.0321 |
| GGCCATGA | 0.194 |
| GTTGTACA | 0.242 |
| GCCGTTGA | -0.0818 |
| CGGGGTCC | 0.0501 |
| GCTCGATA | -0.135 |
| AGATCTCA | -0.0481 |
| GAGAACGA | -0.0214 |
| AAGGGTCG | 0.36 |
| CGCATCCA | 0.0236 |
| GTAGTGAC | 0.0821 |
| GGCTGTAA | -0.0332 |
| CATCGACG | -0.272 |
| AGGCATTA | -0.208 |

Source: the supplement of paper PMC3334620
